# Measurements taken from PMC4336329 (PLoS ONE, 2015).
# About 14,000 (4.5%) of roughly 310,000 compounds showed an effect of 50% or more. The effect is printed as a negative number. The list shows a part of the results.
# Biological target: human ether-à-go-go-related gene (hERG) potassium channel (human, UniProt Q12809)
# Experiment: primary screen, population patch clamp on CHO cells stably expressing hERG
# 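Note: peak tail current of the secondary pulse compared with the same well before compound.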
# Chain of human ether-à-go-go-related gene (hERG) potassium channel (Q12809 whole entry, looked up): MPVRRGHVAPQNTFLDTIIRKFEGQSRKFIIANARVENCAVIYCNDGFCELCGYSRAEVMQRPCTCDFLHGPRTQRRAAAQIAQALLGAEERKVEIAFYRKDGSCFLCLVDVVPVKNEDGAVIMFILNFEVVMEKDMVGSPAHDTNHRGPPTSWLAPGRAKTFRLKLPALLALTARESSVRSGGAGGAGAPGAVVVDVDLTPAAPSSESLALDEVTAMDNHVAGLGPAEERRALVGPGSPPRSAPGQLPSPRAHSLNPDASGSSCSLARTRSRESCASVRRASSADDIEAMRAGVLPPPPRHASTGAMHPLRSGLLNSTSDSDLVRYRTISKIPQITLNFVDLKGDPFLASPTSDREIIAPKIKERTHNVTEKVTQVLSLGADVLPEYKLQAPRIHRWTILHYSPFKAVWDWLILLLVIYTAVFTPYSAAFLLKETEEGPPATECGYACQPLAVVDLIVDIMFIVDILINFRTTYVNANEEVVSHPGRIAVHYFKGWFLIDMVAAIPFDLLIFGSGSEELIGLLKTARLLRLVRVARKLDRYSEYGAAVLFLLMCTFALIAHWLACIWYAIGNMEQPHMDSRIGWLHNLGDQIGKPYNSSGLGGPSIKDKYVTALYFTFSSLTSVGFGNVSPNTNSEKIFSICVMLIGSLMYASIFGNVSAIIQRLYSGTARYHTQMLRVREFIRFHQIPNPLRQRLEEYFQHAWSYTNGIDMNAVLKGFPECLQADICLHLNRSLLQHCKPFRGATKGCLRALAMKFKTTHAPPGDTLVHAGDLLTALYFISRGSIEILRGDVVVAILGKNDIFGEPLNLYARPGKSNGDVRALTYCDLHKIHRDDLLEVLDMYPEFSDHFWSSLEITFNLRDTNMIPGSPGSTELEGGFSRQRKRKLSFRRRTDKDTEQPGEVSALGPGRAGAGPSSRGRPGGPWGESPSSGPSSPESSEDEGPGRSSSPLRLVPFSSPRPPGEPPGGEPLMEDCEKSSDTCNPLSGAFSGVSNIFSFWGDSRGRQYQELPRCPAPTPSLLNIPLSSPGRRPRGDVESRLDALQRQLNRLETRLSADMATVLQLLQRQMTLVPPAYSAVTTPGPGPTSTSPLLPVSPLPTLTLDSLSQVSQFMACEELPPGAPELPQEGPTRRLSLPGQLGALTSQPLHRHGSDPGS
row,Structure (SMILES),"hERG current change (%, negative = inhibition) at 10uM [%]"
1,O=C(NCc1ccccn1)c1ccc(NS(=O)(=O)c2cccc(Cl)c2)cc1,7.73
2,Cc1ccc(C(=O)OCC(=O)NC2CCCCC2)s1,20.9
3,Cc1ccc(C)c(NC(=O)COC(=O)c2cccc(S(=O)(=O)N3CCCCC3)c2)c1,14.6
4,Cc1cc(C)c2c(C)nn(-c3ccccc3)c2n1,11.3
5,COc1cc(C(=O)CCN2CCC(c3ccccc3)C2)cc(OC)c1OC.Cl (centres unmarked),-31.8
6,O=C(c1cc2ccccc2oc1=O)N(Cc1ccco1)C1CCS(=O)(=O)C1 (centres unmarked),-2.57
7,CCc1ccc(NC(=O)C2CCN(c3ncnc4c3nc3n4CCCCC3)CC2)cc1,-6.35
8,O=C1c2ccccc2C(=O)c2c1cccc2N1CCN(C/C=C/c2ccccc2)CC1,-7.23
9,CC1CCC(NC(=O)C2COc3ccccc3O2)CC1 (centres unmarked),9.33
10,COc1ccc(-c2nn(C)c(=O)c3ccccc23)cc1CNC(=O)c1ccco1,-33.9
11,Cc1nnc(NC(=O)C2CCCN(S(=O)(=O)Cc3ccccc3)C2)s1 (centres unmarked),-2.64
12,CCN1CCN(Cc2cc(C(C)(C)C)c(O)c(C(C)(C)C)c2)CC1,-26.5
13,O=S(=O)(NCc1ccc2c(c1)OCO2)c1cccc(F)c1,-6.14
14,Cc1ccc(S(=O)(=O)N2CCCN(C)c3nc4ccccc4nc32)cc1,-5.12
15,Cc1ccccc1NC(=O)CCN1C(=O)CSC1=O,6.58
16,O=C(NCc1ccccc1)C1CCCN(C(=O)NCc2ccccc2)C1 (centres unmarked),0.717
17,Cc1cc(OCc2nn[nH]n2)c2c3c(c(=O)oc2c1)CCC3,3.12
18,O=C(CCC(=O)OCCCC(F)(F)C(F)(F)F)Nc1ccc(Cl)cc1Cl,4.85
19,Cc1nonc1NC(=O)CSc1ccccn1,6.15
20,Cc1cc(Cl)cc(C)c1OCC(=O)O,18.8
21,COc1ccccc1C(=O)N/N=C(\C)c1ccc(NC(=O)C2CC2)cc1,-3.62
22,Cc1ccc(-c2nc(CS(=O)CC(=O)NCc3ccc4c(c3)OCO4)c(C)o2)cc1 (centres unmarked),-33.1

row,Structure (SMILES),"hERG current change (%, negative = inhibition) at 10uM [%]"
1,CCOC(=O)N1CCN(Cc2nc3cc(NC(C)=O)ccc3n2CC)CC1,14.9
2,CN(C)c1ccc(NC(=O)c2ccc(Cn3cc([N+](=O)[O-])cn3)cc2)cc1,-23
3,O=C(NCc1nnc(SCC(=O)N2CCOCC2)o1)c1cccs1,0.145
4,CCCCOc1ccc(-c2cnc3ccccc3n2)cc1,8.79
5,Nc1c(NC(=O)CC[n+]2ccccc2)cccc1[N+](=O)[O-].[Cl-],-0.613
6,O=C(Nc1nnc(C2CC2)s1)c1cccnc1Oc1ccc(Cl)cc1,12
7,O=C1C(=O)N(CCS(=O)(=O)c2ccccc2)c2ccc(F)cc21,8.67
8,Cc1cc(OC(C)C(=O)N2CCN(c3ccc(F)cc3)CC2)c2c(C)c(C)c(=O)oc2c1 (centres unmarked),-29.1
9,COc1ccccc1C(=O)OCC(=O)Nc1cc(S(=O)(=O)N2CCOCC2)ccc1N1CCCC1,-7.82
10,CCN(CC(=O)Nc1ccccc1OC)CC(=O)Nc1ccccc1C(F)(F)F,-5.29
11,CCOCCCNC(=S)N1CCN(CC)CC1.O=C(O)C(=O)O,15.3
12,CCOCCOc1cccc(C(=O)NC(c2ccccc2)C(C)C)c1 (centres unmarked),-3.6
13,Fc1ccc(CN2CCSCC2)cc1Br,-11.1
14,Fc1ccc(NC(=S)Nc2ccc(Cl)cc2Cl)cc1,15.3
15,COc1ccc(C2CC(c3ccccc3)=NN2C(=O)CN2CCN(Cc3ccccc3)CC2)cc1 (centres unmarked),-31.2
16,CCN(CC)S(=O)(=O)c1ccc(-n2c(=O)c(C(C)C)c(C)n2C)cc1,-3.98
17,Cc1onc(-c2ccccc2Cl)c1C(=O)N1CCC(Cc2ccccc2)CC1,13.8
18,CCN(CC(=O)NC1CC1)S(=O)(=O)c1ccccc1,10
19,Cc1ccc(S(=O)(=O)NCCC(c2ccccc2)c2ccco2)cc1 (centres unmarked),0.23
20,Cc1cccc(N2CCN(C(=O)/C=C/c3cccs3)CC2C)c1 (centres unmarked),-36.3
21,O=C(O)C(=O)O.c1ccc(COc2cccc(CN3CCCCC3)c2)cc1,-19.2
22,CCN(CC)c1ccc(C(=O)NNC(=O)C2CSC3(C)CCC(=O)N23)cc1 (centres unmarked),-4.88
